Reference: the supplement of paper PMC3334620
In all, about 33,000 sequences were measured (“E-score (-0.5 to 0.5)”: median about -0.011, highest 2% from about 0.28 on). The list shows a part of the results.

The sequences below were run against T1, Gcr1 (UniProt P07261) (assay: PBM E-score (8-mer binding enrichment) (E-score (-0.5 to 0.5)); higher = stronger / more preferred TF binding; most listed sequences are background and not binding sites). Details: protein concentration: 100 nM; construct: GST-full length.
T1 sequence: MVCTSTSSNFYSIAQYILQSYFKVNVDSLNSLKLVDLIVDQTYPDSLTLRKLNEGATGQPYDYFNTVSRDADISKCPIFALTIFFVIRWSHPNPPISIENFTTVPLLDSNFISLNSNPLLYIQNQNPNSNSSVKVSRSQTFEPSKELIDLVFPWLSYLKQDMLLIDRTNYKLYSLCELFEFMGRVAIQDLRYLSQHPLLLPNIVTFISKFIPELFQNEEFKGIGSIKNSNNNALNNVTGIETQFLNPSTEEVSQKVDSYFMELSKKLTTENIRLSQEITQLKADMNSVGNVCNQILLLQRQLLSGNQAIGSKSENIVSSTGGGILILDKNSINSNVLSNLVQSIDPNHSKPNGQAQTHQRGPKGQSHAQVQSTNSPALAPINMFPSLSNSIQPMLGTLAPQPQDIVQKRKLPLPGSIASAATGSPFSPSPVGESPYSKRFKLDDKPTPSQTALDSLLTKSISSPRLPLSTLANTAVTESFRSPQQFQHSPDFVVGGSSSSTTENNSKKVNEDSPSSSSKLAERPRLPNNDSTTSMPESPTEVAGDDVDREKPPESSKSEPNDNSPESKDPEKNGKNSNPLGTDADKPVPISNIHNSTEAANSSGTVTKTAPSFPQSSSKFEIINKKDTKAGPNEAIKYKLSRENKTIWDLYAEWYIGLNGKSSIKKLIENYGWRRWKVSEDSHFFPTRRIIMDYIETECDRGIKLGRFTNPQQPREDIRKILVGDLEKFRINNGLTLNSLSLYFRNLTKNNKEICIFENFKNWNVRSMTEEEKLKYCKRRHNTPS
Outline: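 E-scores (a modified Wilcoxon-Mann-Whitney statistic) were assigned by the Universal PBM Analysis Suite to every ungapped eight-base word pooled with its reverse complement. The input came from universal all-10-mer Agilent arrays made double-stranded by primer extension and probed with GST-tagged yeast transcription factors at about 100-200 nM. Fluorescent anti-GST detected bound protein, and masliner normalised the scans.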

Sequence | PBM E-score
AAGGCGGC | -0.0016
AAGGAAAA | -0.11
CCAGTATC | 0.245
CGATCCTA | 0.00296
AGGGAACC | 0.203
GAGCTCGC | -0.155
GAGTGTAA | -0.0829
ACAACGCG | 0.0662
GGCTAGCA | -0.0895
CCCGTGCG | -0.0483
CATGACCA | -0.0378
ATAATCAT | 0.194
ACCAGATC | 0.245
CCTTGAGA | -0.162
CTATGCGA | -0.14
AGGGTAAA | -0.106
CCAATCAA | 0.124
AACATATG | -0.0382
AACTTAAT | 0.0317
ACATAGTA | 0.0983
CTGAGGAC | 0.0367
GGTGTCGA | -0.202
ACATCTGC | 0.0387
ACCTACCT | -0.0768
ATGACGCC | -0.0323

Sequence | PBM E-score
AAATATGA | 0.123
ATCGAACG | -0.0939
AAGCACCC | 0.283
CCGAATTA | 0.178
CACGGTTC | -0.167
GATCGTCC | 0.0312
ACTACGTC | -0.0471
ATATCTTC | -0.00707
GAATGGGA | 0.231
CTTGCCCC | -0.0693
CATAATCC | -0.00216
AGAACAGG | 0.122
TTGTTAAA | -0.00461
GCGCAGTA | -0.18
TACGAACA | 0.0261
CAAATTGA | -0.0434
AAGCTGCA | -0.0206
AAGCCTCT | 0.0523
AAGGTGAG | -0.105
AAAAACTG | -0.0509
GAGGCTAA | -0.0285
CGGCAGGA | -0.0947
CGGTGGCC | -0.139
ACGCTAGT | 0.0822
TAGATGAA | -0.0625

Sequence | PBM E-score
CCCGCAAC | 0.231
CTACTGCC | -0.0769
GCCCTTGA | -0.0468
CGGAAGAA | -0.0973
CAACCTCA | -0.0311
CAGCATAC | -0.0944
CCCCACTA | 0.196
AGACGCGG | 0.238
GCCACTTA | 0.184
ATCTATTG | 0.159
TACGACTA | -0.0181
GGGAATGA | 0.147
GAGGTGCC | 0.281
AGAGATCT | -0.271
AGGCACAA | -0.0212
GAACCGTC | 0.0271
ACGGGCTC | -0.153
GAGTTACC | -0.264
ACGGTTCA | -0.279
CAGAGCTC | -0.158
GCGCGACA | 0.175
GCACCAAC | 0.197
ATATGCTC | -0.175
ATACGCAT | 0.23
TTCTGCAA | 0.134

Sequence | PBM E-score
AAGATAAG | 0.177
ACCTAGTA | -0.0412
ACCTATCA | -0.113
CTATACGA | -0.0137
CACGGCGG | -0.149
AATCATCT | -0.251
AGATCGTG | -0.0376
AAGGCCCA | -0.0877
CACGCATG | -0.0499
CCTGGTCA | 0.0605
CGACTGGA | 0.316
GGTCCCAA | 0.066
AACCGAAA | 0.00892
AAGACTTA | -0.272
AGTCTGCC | -0.193
AGACCTGC | -0.135
CATACCGA | 0.0765
CCCCCAGC | -0.271
ATGTGACC | 0.216
ATGAGAGA | -0.136
AACCAAGT | 0.144
CTGAGTCA | 0.0975
AGACGATA | 0.0287
AATGCGGA | -0.0747
GGGCTGTA | -0.176

Sequence | PBM E-score
TACCGGTA | 0.266
TCTGCCAA | 0.00421
GGCCTTAA | -0.223
AAGCAGGA | 0.0293
CCATATGG | 0.0577
TAGGTTCA | -0.119
CCCCTTGA | -0.115
ATAGGAGA | -0.0471
GGCCGTAA | 0.0853
AGCTAGAT | 0.127
GCCATACA | 0.0945
GATGATCA | -0.105
ACTAATCG | -0.157
GAGCACGA | 0.0594
CGCGCTAG | -0.0588
TACTTCCA | 0.121
ATCCACAC | -0.0771
AAGTGTCG | -0.041
CGTCGGTC | -0.069
AATGTAAA | 0.106
GCGGGGAC | -0.126
GTGGTTAA | -0.0424
AGGTATAA | -0.0419
CGTCGTGC | -0.103
TGCCTACA | 0.0247

Sequence | PBM E-score
ACTAGGGG | 0.0945
CGGCATGC | -0.147
AGAATGCA | 0.115
GCAGACAC | 0.0309
ATCAAATG | -0.00895
CCGGAATA | 0.0263
GTTAAGCA | 0.0245
GTTAGCTA | -0.0466
AAAGTCAA | -0.211
ACGGCCAG | -0.0766
AGTTAAAC | 0.0443
AACCATGC | 0.103
CTGCCAAC | 0.0573
ACTTAGGC | 0.0458
ACCCCGTC | 0.0174
TAAATGAA | -0.135
GCTCTGAC | -0.157
ACCACATG | 0.0716
CCGGAACA | -0.0359
GGCCCAAC | -0.128
CCTTATTC | -0.0501
ACACCGCC | -0.0336
ACAACGTA | -0.042
AGAACGGG | -0.0637
CTGAAAAA | 0.0942

Sequence | PBM E-score
CACTCTAG | 0.0574
CCCGGAGG | 0.0461
GATCACAC | -0.179
CGGTTCCA | 0.189
GCTGTCAC | 0.00808
AGGGTTTC | -0.043
CGATGCAC | -0.239
AACAAGAT | 0.0921
CAACCGCG | -0.152
AGTCCAGG | -0.161
GCAGGCAA | -0.0468
CTATCTAA | 0.0445
AGGGTTAC | -0.155
CGGCCCCG | 0.0571
AAATCAAT | -0.0863
CCCATTGC | -0.1
GCGGACGC | 0.151
CAAACATC | -0.0208
AACGCGCC | 0.201
AAATAGTT | 0.138
TATCAGGA | 0.131
ACAGGTAC | -0.137
ACCTACAA | 0.142
ATGGTAAG | -0.102
GAAATTCC | 0.127

Sequence | PBM E-score
CTCGACTC | -0.191
GCGCTCAA | -0.0767
CACCCTAA | 0.055
GTCTGTAA | -0.0579
TCACTGGA | 0.219
GAACGATC | 0.0394
CCTCCCGA | 0.0174
CTACCCGC | 0.104
CGCCTCCA | 0.134
ATCACTGC | -0.0935
ACAGTTCA | -0.0755
CATTCTGA | -0.00147
GGATGGAC | 0.0522
CTTAGGGC | 0.146
TCCAACGA | 0.00498
ACCGAAAC | 0.0484
CTAGATTA | -0.0428
CAGTACGA | -0.144
ATGGTAGG | -0.13
GCGCGAAC | 0.0242
CAAAGTCG | -0.154
AGTGGTAG | 0.318
ATTGTGCC | -0.28
CGTTTTAC | -0.101
AGTAGGGC | 0.0894

Sequence | PBM E-score
CCACCAGG | -0.0484
ACCCTTTG | -0.225
TAGTTCGA | 0.0984
CTACGCCC | -0.00525
CTATAAAC | 0.0777
AACGGGAT | 0.202
AGGGCATA | -0.118
CGTGTTAC | -0.148
GTGTACAC | -0.117
TACAGGCA | 0.195
GTCCTAAA | 0.21
ACCGGGGG | -0.183
ACGTCGCC | 0.11
ATTAAATC | 0.203
GTATAATA | 0.216
ATTGATTA | 0.198
GTGAGTAA | -0.113
CGATAAAG | -0.0204
CTCCGTAC | -0.111
